# Measured values from the antibiotic and cytotoxicity screens of Wong et al. (2023).
# Some of the results follow.
# How the values were obtained:
# HSkMC = human skeletal muscle cells; test: cytotoxicity call (relative viability < 0.9); settings: 10 µM
# HepG2 = test: cytotoxicity call (relative viability < 0.9); settings: 10 µM
# S. aureus RN4220 = test: growth inhibition call (relative growth <= 0.2); settings: 50 µM
SMILES,cytotoxicity call (HSkMC),cytotoxicity call (HepG2),growth inhibition call (S. aureus RN4220)
C[C@@H]1CN([C@H](C)CO)C(=O)c2cc(NC(=O)C3CC3)ccc2O[C@@H]1CN(C)S(=O)(=O)c1ccccc1,inactive,inactive,inactive
O=C(C[C@H]1C[C@H]2c3cc(NS(=O)(=O)c4ccc(F)cc4)ccc3O[C@H]2[C@H](CO)O1)NCc1ccncc1,inactive,inactive,inactive
CCOC(=O)c1cn[nH]c1N,inactive,inactive,inactive
CC1(C)SC2C(NC(=O)C(NC(=O)N3CCNC3=O)c3ccccc3)C(=O)N2C1C(=O)[O-].[Na+] (stereo unspecified),inactive,inactive,active
COc1ccc(NC(=O)N(C)C[C@@H]2OCc3cnnn3CCCC(=O)N([C@H](C)CO)C[C@H]2C)c(OC)c1,inactive,inactive,inactive
C[C@@H]1CN([C@H](C)CO)C(=O)c2cc(NC(=O)NC3CCCCC3)ccc2O[C@@H](C)CCCCO[C@@H]1CN(C)C(=O)Cc1ccccc1,inactive,inactive,inactive
CCCNC(=O)C[C@H]1CC[C@H]2[C@@H](COC[C@@H](O)CN2S(=O)(=O)c2ccc(Oc3ccccc3)cc2)O1,inactive,inactive,inactive
Cc1nnc(C(C)C)n1[C@@H]1C[C@H]2CC[C@@H](C1)N2CC[C@H](NC(=O)C1CCC(F)(F)CC1)c1ccccc1,inactive,inactive,inactive
Cc1ccc(-c2cnc3c(c2)C(=O)N([C@H](C)CO)C[C@@H](C)[C@H](CN(C)C(=O)Cc2cccnc2)O3)cc1,inactive,inactive,inactive
CC(=O)Nc1cc2c(cc1N)OCCO2,inactive,inactive,inactive
C[C@H]1CN([C@@H](C)CO)C(=O)c2cc(NC(=O)C3CCCCC3)ccc2O[C@@H]1CN(C)C(=O)Nc1cccc2ccccc12,inactive,inactive,inactive
CC(=O)N[C@H](C)c1cn(C)nc1C,inactive,inactive,inactive
CCOC(=O)N(C)C[C@@H]1OCc2cn(nn2)CCCC(=O)N([C@@H](C)CO)C[C@@H]1C,inactive,inactive,inactive
C[C@@H]1CN([C@@H](C)CO)C(=O)c2cc(NC(=O)CCCCCC(=O)Nc3ccccc3N)ccc2O[C@H]1CN(C)C(=O)Nc1ccccc1,inactive,inactive,inactive
C[C@@H]1CCCCO[C@@H](CN(C)C(=O)Nc2ccc3c(c2)OCO3)[C@@H](C)CN([C@@H](C)CO)C(=O)c2cc(NC(=O)Nc3ccccc3)ccc2O1,inactive,inactive,inactive
c1ccn(CCN2CCNCC2)c1,inactive,inactive,inactive
COc1ccc(N2C[C@H](C(N)=O)CC2=O)cc1,inactive,inactive,inactive
COc1ccc(C#Cc2ccc3c(c2)[C@]2(C(=O)N3)[C@H](C(=O)N3CCN(c4ncccn4)CC3)[C@H]3C(=O)O[C@H](c4ccccc4)[C@H](c4ccccc4)N3[C@@H]2c2ccc(O)cc2)cc1,inactive,inactive,inactive
C[C@H]1CN([C@@H](C)CO)C(=O)c2cc(NS(=O)(=O)c3cn(C)cn3)ccc2O[C@@H]1CN(C)C(=O)NC1CCCCC1,inactive,inactive,inactive
Cc1noc(C)c1S(=O)(=O)Nc1ccc2c(c1)CC(=O)N([C@@H](C)CO)C[C@@H](C)[C@H](CN(C)S(=O)(=O)c1ccc(F)cc1)O2,inactive,inactive,inactive
C[C@H]1CN([C@@H](C)CO)C(=O)c2cc(NC(=O)Nc3ccc(C(F)(F)F)cc3)ccc2O[C@@H]1CN(C)Cc1ccncc1,inactive,active,inactive
COc1ccc(S(=O)(=O)N[C@H]2C=C[C@@H](CC(=O)NCCc3ccncc3)O[C@@H]2CO)cc1,inactive,inactive,inactive
Cc1noc(C)c1NC(=O)Nc1ccc2c(c1)CC(=O)N([C@@H](C)CO)C[C@@H](C)[C@@H](CN(C)Cc1ccc(Oc3ccccc3)cc1)O2,inactive,inactive,inactive
C[C@@H]1CN([C@@H](C)CO)S(=O)(=O)c2ccc(C3=CCCC3)cc2O[C@@H]1CN(C)S(=O)(=O)c1ccc(F)cc1,inactive,inactive,inactive
C[C@H]1CN([C@@H](C)CO)S(=O)(=O)c2ccc(-c3cccnc3)cc2O[C@H]1CN(C)CC1CCOCC1,inactive,inactive,inactive
COc1ccc(NC(=O)N(C)C[C@@H]2Oc3ccc(NC(=O)C4CC4)cc3C(=O)N([C@@H](C)CO)C[C@@H]2C)cc1,inactive,inactive,inactive
COc1ccc(S(=O)(=O)N(C)C[C@@H]2Oc3ccc(NC(=O)CCC(F)(F)F)cc3CC(=O)N([C@@H](C)CO)C[C@@H]2C)cc1,inactive,inactive,inactive
